Data from a collection of fitness landscapes (doi:10.1126/science.1257360).
The list shows a part of the results.

B1: PhoQ; a variant is named by its letters at X, in order, P23837 (parent)
chain: MKKLLRLFFPLSLRVRFLLATAAVVLVLSLAYGMVALIGYSVSFDKTTFRLLRGESNLFYTLAKWENNKLHVELPENIDKQSPTMTLIYDENGQLLWAQRDVPWLMKMIQPDWLKSNGFHEIEADVNDTSLLLSGDHSIQQQLQEVREDDDDAEMTHSVAVNVYPATSRMPKLTIVVVDTIPVELKSSYMVWSWFIYVLSANLLLVIPLLWVAAWWSLRPIEALAKEVRELEEHNRELLNPATTRELTSLVRNLNRLLKSERERYDKYRTTLTDLTHSLKTPLXXLQXXLRSLRSEKMSVSDAEPVMLEQISRISQQIGYYLHRASMRGGTLLSRELHPVAPLLDNLTSALNKVYQRKGVNISLDISPEISFVGEQNDFVEVMGNVLDNACKYCLEFVEISARQTDEHLYIVVEDDGPGIPLSKREVIFDRGQRVDTLRPGQGVGLAVAREITEQYEGKIVAGESMLGGARMEVIFGRQHSAPKDE

Variants of: B1
Assay: enrichment ratio after two sorts for PhoP signalling (ratio (wild type AVST 3.29)); higher = more functional
Conditions: with PhoP (E. coli)

Variant | enrichment ratio
PAYN | ≤ 0.25
ERIS | ≤ 0.25
LDFQ | ≤ 0.25
TSAE | 6.74
SEEA | ≤ 0.25
HTTR | ≤ 0.25
PPMC | ≤ 0.25
WDLE | ≤ 0.25
PEPL | ≤ 0.25
HLQI | ≤ 0.25
MNWE | 17.9
LDDR | ≤ 0.25
QLVD | ≤ 0.25
APGC | ≤ 0.25
YHLK | ≤ 0.25
GMLR | ≤ 0.25
HTGW | ≤ 0.25
WVKG | ≤ 0.25
ISPR | ≤ 0.25
YGTT | ≤ 0.25
MVFD | ≤ 0.25
PSWN | ≤ 0.25
TTVN | 7.71
RWPK | ≤ 0.25
ELNP | ≤ 0.25

Variant | enrichment ratio
RDVE | ≤ 0.25
FQGF | ≤ 0.25
LYAI | ≤ 0.25
QPGK | ≤ 0.25
YNPN | ≤ 0.25
FNIV | ≤ 0.25
GHAF | ≤ 0.25
FDWE | ≤ 0.25
LSRR | ≤ 0.25
LFLL | ≤ 0.25
AMAY | 7.6
HGPH | ≤ 0.25
FGGC | ≤ 0.25
HNPH | ≤ 0.25
IAET | ≤ 0.25
IYRP | ≤ 0.25
ISKV | ≤ 0.25
DQMY | ≤ 0.25
RGNY | ≤ 0.25
GQYH | ≤ 0.25
SEWF | 1.29
TFNQ | 13.4
DNNQ | ≤ 0.25
VGSG | 2.39
SNHE | ≤ 0.25

Variant | enrichment ratio
ADMR | ≤ 0.25
FNQH | ≤ 0.25
TFSL | 7.53
WPFF | ≤ 0.25
ELDN | ≤ 0.25
RWRF | ≤ 0.25
YPEI | ≤ 0.25
KGWP | ≤ 0.25
MDWK | ≤ 0.25
VMMF | ≤ 0.25
CTSR | ≤ 0.25
INLM | 5.25
MIHQ | 4.33
QFRW | ≤ 0.25
WPYP | ≤ 0.25
YTQM | ≤ 0.25
EWAQ | ≤ 0.25
YRIN | ≤ 0.25
MYPD | ≤ 0.25
GQHV | ≤ 0.25
TMDD | ≤ 0.25
PTYA | ≤ 0.25
WHER | ≤ 0.25
YFEV | ≤ 0.25
WNMY | ≤ 0.25

Variant | enrichment ratio
GDLW | ≤ 0.25
WDPK | ≤ 0.25
FQCQ | ≤ 0.25
LKFE | ≤ 0.25
ICFI | ≤ 0.25
NAFF | ≤ 0.25
GQKD | ≤ 0.25
AFLI | ≤ 0.25
SVGS | 0.772
RCQL | ≤ 0.25
RAGR | ≤ 0.25
KDGN | ≤ 0.25
FACM | 6.18
SNDW | ≤ 0.25
DMGT | ≤ 0.25
SAKV | ≤ 0.25
GAIT | ≤ 0.25
VIMC | ≤ 0.25
PCWS | ≤ 0.25
TWTW | ≤ 0.25
IMSK | ≤ 0.25
RKMN | ≤ 0.25
PHSI | ≤ 0.25
NGAR | ≤ 0.25
NQQH | ≤ 0.25

Variant | enrichment ratio
PGSP | ≤ 0.25
GLYR | ≤ 0.25
RLCI | ≤ 0.25
IMRT | ≤ 0.25
CFGF | ≤ 0.25
VVFE | ≤ 0.25
WPLG | ≤ 0.25
FWHC | ≤ 0.25
WMPS | ≤ 0.25
RITS | ≤ 0.25
RFPL | ≤ 0.25
SLAR | ≤ 0.25
KRLS | ≤ 0.25
KVNC | ≤ 0.25
ASNW | ≤ 0.25
SQHS | ≤ 0.25
KCKG | ≤ 0.25
DGTG | ≤ 0.25
RIFC | ≤ 0.25
ATSE | 2.13
HVTM | ≤ 0.25
VHHE | ≤ 0.25
DIMG | ≤ 0.25
FTLF | 8.01
KSNN | ≤ 0.25

Variant | enrichment ratio
VCDE | ≤ 0.25
RCYT | ≤ 0.25
TQYY | 4.95
DHED | ≤ 0.25
MRAT | ≤ 0.25
YCPD | ≤ 0.25
NGSS | ≤ 0.25
HPCI | ≤ 0.25
AYGC | ≤ 0.25
DFHS | ≤ 0.25
GGIL | 3.71
YWRM | ≤ 0.25
MIAW | ≤ 0.25
PRCN | ≤ 0.25
QWFA | ≤ 0.25
ATGC | ≤ 0.25
MWIN | ≤ 0.25
LLIA | ≤ 0.25
TPGI | ≤ 0.25
PFWG | ≤ 0.25
DHNM | ≤ 0.25
LPET | ≤ 0.25
LWWG | ≤ 0.25
RQLV | ≤ 0.25
IFTE | ≤ 0.25

Variant | enrichment ratio
FAEK | ≤ 0.25
LTWT | ≤ 0.25
YSQA | ≤ 0.25
GKVF | ≤ 0.25
HERY | ≤ 0.25
SCMN | 7.82
DVDN | ≤ 0.25
VYFD | ≤ 0.25
ANAD | ≤ 0.25
EGFW | ≤ 0.25
VPCL | ≤ 0.25
NIVD | ≤ 0.25
PINA | ≤ 0.25
HCLM | ≤ 0.25
MTPI | ≤ 0.25
YVIN | ≤ 0.25
MLGA | ≤ 0.25
LKKW | ≤ 0.25
DIGF | ≤ 0.25
TQYA | 2.28
LDHE | ≤ 0.25
HISD | ≤ 0.25
VTID | ≤ 0.25
FQFD | ≤ 0.25
TSAI | 16.9

Variant | enrichment ratio
MRPE | ≤ 0.25
RHDI | ≤ 0.25
SQDM | ≤ 0.25
ADSQ | ≤ 0.25
LWAS | ≤ 0.25
YADQ | ≤ 0.25
KSKP | ≤ 0.25
LYSR | ≤ 0.25
IKIH | ≤ 0.25
EKST | ≤ 0.25
YKLI | ≤ 0.25
PRVE | ≤ 0.25
LMGA | ≤ 0.25
MLWA | ≤ 0.25
LSQW | ≤ 0.25
DFVR | ≤ 0.25
MYRI | ≤ 0.25
WSMT | ≤ 0.25
YQWA | ≤ 0.25
VWAT | ≤ 0.25
